Measured values as given in PubChem BioAssay (NCATS).
Several values for one entry are separate records, joined by “and”; a condition that tells them apart may be missing. Equal values may be shown once. Inconclusive means that the source gave no clear call. Such entries were picked first, then a sample of the others. For some assays here: Potencies of inconclusive entries are doubtful fits and often do not repeat. Activity calls are given as the source filed them. Unless noted, calls come from the whole dose curve; as a rule, active = well fitted curve in the direction sought with a large enough effect; inconclusive = small, poorly fitted or top-dose-only effect, or another doubt; inactive = no such curve, though single readings can be large; an effect the other way counts as inactive or inconclusive.

Legend:
[1] = Cell Viability - Renal Proximal Tubule (AID 545); conditions: renal proximal tubule cells viability; at 91.7 µM (top of the series), primary cells of rat origin unless noted;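 note: cells exposed to compound for 40 hours; 0% = DMSO only and -100% = 100 µM tamoxifen; nearly all actives have a fitted effect of over 40% in size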
Method in brief: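 Cytotoxicity is scored as a concentration-dependent drop in cellular ATP in primary rat renal proximal tubule cells exposed for 40 hr. AC50 derives from Hill modelling.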

[2] = molecular target: Cytochrome P450 3A4 (Homo sapiens) (UniProt P08684); experiment: qHTS Assay for Inhibitors and Substrates of Cytochrome P450 3A4 (AID 884); note: % is set by controls: 0 for no effect and ±100 for the full control effect; nearly all actives have a fitted effect of over 50% in size
Method in brief: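 20 nM human CYP3A4 with 25 uM Luciferin-PPXE (at KM) in 200 mM KPO4, preincubated 10 min with compound; NADPH regeneration started a 60 min RT reaction. Luciferin detected by luminescence, normalized to 57 uM ketoconazole as full inhibition.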

[3] = Cell Viability - LYMP2-005 (AID 967); note: potency is the fitted concentration of half-maximal effect
Method in brief: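 qHTS viability screen in LYMP2-005 cells: 24 h at 37 C with compound, ATP luminescence via CellTiter-Glo, AC50 from Hill curves.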

[4] = Cell Viability - LYMP2-009 (AID 968); note: potency is the fitted concentration of half-maximal effect; nearly all actives have a fitted effect of over 55% in size
[5] = Cell Viability - LYMP2-006 (AID 978);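 note: cells exposed to compound for 24 hours; nearly all actives have a fitted effect of over 60% in size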; note: potency is the fitted concentration of half-maximal effect; for activity change, negative = cytotoxicity: % is set by controls: 0 for no effect and ±100 for the full control effect
Method in brief: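 Concentration-dependent loss of intracellular ATP in a human lymphoblastoid line after 24 hr treatment at 37 C was measured by CellTiter-Glo luminescence, with AC50 values obtained from standard Hill-equation modelling.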

[6] = Cell Viability - LYMP2-007 (AID 979); conditions: LYMP2-007 lymphoblastoid cell viability; activity change, negative = cytotoxicity: at 92.2 µM (top of the series);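 note: potency is the fitted concentration of half-maximal effect; cells exposed to compound for 24 h before reading; nearly all actives have a fitted effect of over 60% in size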
Method in brief: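 Human lymphoblastoid LYMP2-007 cells (2500/well) preincubated 5 h at 37 C, then treated 24 h at 37 C in complete medium. Viability by CellTiter-Glo ATP luminescence after 30 min at room temperature; AC50 from Hill fits.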

[7] = Cell Viability - LYMP2-008 (AID 980); note: potency is the fitted concentration of half-maximal effect; nearly all actives have a fitted effect of over 60% in size
Method in brief: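 LYMP2-008 lymphoblastoid cells (2500/well) plated 5 h, then treated 24 h at 37 C in complete medium. Viability read as intracellular ATP by CellTiter-Glo luminescence after 30 min at room temperature; AC50 from Hill fits.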

[8] = Cell Viability - LYMP2-012 (AID 982); conditions: LYMP2-012 lymphoblastoid cell viability qHTS; activity change, negative = cytotoxicity: at 92.2 µM (top of the series);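 note: cellular ATP by luciferase luminescence where a drop means cytotoxicity; cells exposed to compound for one day before reading; 0% = DMSO only and full loss = 92 µM tetraoctylammonium bromide; nearly all actives have a fitted effect of over 55% in size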
[9] = molecular target: Peroxisome proliferator-activated receptor delta (Homo sapiens) (UniProt Q03181); experiment: qHTS assay for small molecule antagonists of peroxisome proliferator-activated receptor delta signaling (AID 588535; active = well fitted inhibition curve with a large enough effect in the signal ratio, with a control signal flat, not every such curve was filed as active; inconclusive = small, poorly fitted or top-dose-only effect, or effect the other way, or a change in a side signal; inactive = no such curve, though single readings can be large or run the other way; the % refers to the signal ratio); conditions: HEK293T PPARd-UAS-bla, beta-lactamase FRET ratio, 18 h; activity change, negative = inhibition: at 76.7 µM (top of the series) unless noted
Method in brief: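 Reporter: UAS-bla under PPAR-delta response element, HEK293T host. Medium: 2% charcoal/dextran FBS. Dosing: titration, 18 hrs, 37 C. Detection: CCF4, 2 hrs RT, 405 ex/460 and 530 em.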

[10] = molecular target: Peroxisome proliferator-activated receptor gamma (Homo sapiens) (UniProt P37231); experiment: qHTS assay for small molecule antagonists of peroxisome proliferator-activated receptor gamma signaling (AID 588537; active = well fitted inhibition curve with a large enough effect in the signal ratio, with a control signal flat, not every such curve was filed as active; inconclusive = small, poorly fitted or top-dose-only effect, or effect the other way, or a change in a side signal; the % refers to the signal ratio; note: potency is the fitted concentration of half-maximal effect;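 note: reporter cells co-stimulated with 50 nM rosiglitazone agonist during compound treatment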; for activity, negative = inhibition: % of control where 0% means no effect); conditions: HEK293 PPARg-UAS-bla, beta-lactamase ratio, antagonist mode; activity, negative = inhibition: at 76.8 µM (top of the series)
Method in brief: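 We seeded GeneBLAzer HEK293 reporter cells at 3000 per well, allowed 6-6.5 h attachment at 37 C, then co-treated with test compound titrations and 50 nM rosiglitazone overnight (16 h). Inhibition was quantified from 460/530 nm emission ratios.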

[11] = qHTS assay for small molecule agonists of the antioxidant response element (ARE) signaling pathway (AID 651741; active = well fitted activation curve with a large enough effect in the signal ratio; inconclusive = small, poorly fitted or top-dose-only effect, or effect the other way, or a change in a side signal; the % refers to the signal ratio; note: potency is the fitted concentration of half-maximal effect); conditions: HepG2 ARE-bla reporter, beta-lactamase FRET ratio, 16 h; activation: at 96 µM (top of the series) unless noted
Method in brief: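 Compounds in DMSO are pinned onto HepG2 ARE-bla cells (2,000/well) that were preincubated 5 h; plates stay 16 h at 37 C, then beta-lactamase activity is detected with LiveBLAzer B/G substrate by fluorescence.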

[12] = qHTS assay to identify small molecules that stimulate interleukin-8 (IL-8) secretion (AID 651758; active = well fitted activation curve with a large enough effect in the signal ratio; inconclusive = small, poorly fitted or top-dose-only effect, or effect the other way, or a change in a side signal; the % refers to the signal ratio; note: 0% is about no effect); conditions: HTRF ratio (665/615); activation: at 92.2 µM (top of the series)
Method in brief: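 THP-1, 2000 cells/well; cpd 16 h, 37 C; add cryptate + XL665 anti-IL-8 Abs; RT 1-3 h; TR-FRET read.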

[13] = qHTS assay for small molecule antagonists of the retinoid-related orphan receptor gamma (ROR-gamma) signaling pathway - cell viability counter screen (AID 720652; active = well fitted curve in the direction sought with a large enough effect in the repeat runs; inconclusive = weak or mixed curves; inactive = no such curve, though single readings can be large; an effect the other way counts as inactive or inconclusive;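 note: potency is the fitted concentration of half-maximal effect; compound exposure lasted 16 hr before ATP read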)
Method in brief: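 CHO cells carrying TET-inducible ROR and RORE-luciferase reporter, plated 5 hr, then dosed with compound plus doxycycline. After 16 hr at 37 C, viability read as intracellular ATP by CellTiter-Glo luminescence.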
Tags give direction and shape of the fitted curve or compound fluorescence and quenching.

Sequence of UniProt Q03181 (Q03181 whole entry, looked up): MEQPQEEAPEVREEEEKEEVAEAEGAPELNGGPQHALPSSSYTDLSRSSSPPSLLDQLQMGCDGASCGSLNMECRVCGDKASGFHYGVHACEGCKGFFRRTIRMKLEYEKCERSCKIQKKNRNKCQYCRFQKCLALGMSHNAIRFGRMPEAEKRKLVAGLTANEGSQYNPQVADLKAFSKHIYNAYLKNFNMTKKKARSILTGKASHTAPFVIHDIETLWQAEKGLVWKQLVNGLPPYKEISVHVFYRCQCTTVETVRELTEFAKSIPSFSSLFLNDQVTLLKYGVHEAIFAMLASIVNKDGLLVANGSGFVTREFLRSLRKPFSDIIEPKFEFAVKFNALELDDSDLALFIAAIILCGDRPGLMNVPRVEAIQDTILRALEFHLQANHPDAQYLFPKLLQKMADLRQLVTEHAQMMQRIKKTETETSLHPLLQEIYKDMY
Sequence of UniProt P08684 (P08684 whole entry, looked up): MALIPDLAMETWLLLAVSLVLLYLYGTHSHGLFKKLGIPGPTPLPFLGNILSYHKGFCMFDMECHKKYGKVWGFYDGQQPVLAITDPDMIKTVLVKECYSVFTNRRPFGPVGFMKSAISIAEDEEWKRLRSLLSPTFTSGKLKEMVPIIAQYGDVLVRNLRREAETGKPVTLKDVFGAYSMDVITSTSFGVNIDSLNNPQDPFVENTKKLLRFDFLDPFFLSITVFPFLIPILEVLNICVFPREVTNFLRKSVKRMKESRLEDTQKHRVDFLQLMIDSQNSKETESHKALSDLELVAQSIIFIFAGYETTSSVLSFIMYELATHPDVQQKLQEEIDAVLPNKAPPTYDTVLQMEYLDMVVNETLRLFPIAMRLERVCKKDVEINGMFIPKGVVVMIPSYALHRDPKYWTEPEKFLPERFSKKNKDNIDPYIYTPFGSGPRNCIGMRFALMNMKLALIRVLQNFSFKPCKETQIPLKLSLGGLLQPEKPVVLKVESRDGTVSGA

What does the source list for `COc1ccc(N)cc1`?
activity change, negative = cytotoxicity [1]: inactive: 0.402% and inactive: -5.11%; Potency [2]: inactive; Potency [3]: inconclusive: 79.4 µM [cytotoxic, single point]; Potency [4]: inconclusive: 3980 µM [cytotoxic, partial curve, poor fit]; Potency [5]: inconclusive: 2 µM [cytotoxic, full curve, poor fit] and inactive; Potency [6]: inconclusive: 1.58 µM [cytotoxic, full curve, poor fit]; Potency [7]: inconclusive: 0.158 µM [cytotoxic, full curve, poor fit]; Potency [8]: inactive; activity change, negative = inhibition [9]: inconclusive: 10.5%; Potency [10]: inconclusive: 12.6 µM [inhibitor, full curve, poor fit]; activity, negative = inhibition [10]: inconclusive: -19.7%; Potency [11]: inconclusive: 16.8 µM [activator, partial curve] and inconclusive: 42.2 µM [activator, partial curve]; Potency [12]: inactive; Potency [13]: inconclusive: 75 µM [rising, partial curve, poor fit]
